Test results from the supplement of paper PMC4604168 (melanoma cell lines).
This is one part of the list. Most values come without repeats; read them as rough.

Legend:
Experiment in all cases: cell count relative to DMSO control; melanoma cells; higher = more viable cells
Conditions in all cases: library dose: low library concentration; 72 h
[1] = test system: WM115
[2] = test system: WM1716
[3] = test system: WM1745
[4] = test system: WM3526
[5] = test system: WM3619
[6] = test system: WM451Lu
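Also: cell number obtained by counting DAPI-stained nuclei in high-throughput microscope images with image analysis software, screen run in 1,536-well plates.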

| SMILES | cell count [1] [%] | cell count [2] [%] | cell count [3] [%] | cell count [4] [%] | cell count [5] [%] | cell count [6] [%] |
| --- | --- | --- | --- | --- | --- | --- |
| O=C(Nc1cccc(Cl)c1)Nc1ncc(CCNc2ncnc3ccsc23)s1 + O=C1NC(=O)/C(=C/c2ccc(-c3ccc(F)cc3O)o2)S1 [AS252424] (first compound 0.0008 µM, partner dose 1 µM) | 74.5 | 116 | 127 | 83.4 | 98.9 | 116 |
| CC1(C)NC(=O)N(c2ccc([N+](=O)[O-])c(C(F)(F)F)c2)C1=O [nilutamide] + Cc1cc([N+](=O)[O-])ccc1NS(=O)(=O)c1cc(Cl)ccc1Cl [FH535] (first compound 1 µM, partner dose 1 µM) | 94.6 | 92.6 | 91.3 | 105 | 69.2 | 98.2 |
| O=c1[nH]nc(Sc2ncc([N+](=O)[O-])s2)n1-c1ccc2c(c1)OCCO2 + Cc1cc(N2CCOCC2)cc2[nH]c(-c3c(NC[C@@H](O)c4cccc(Cl)c4)cc[nH]c3=O)nc12 [BMS536924] (first compound 0.2 µM, partner dose 0.2 µM) | 94.4 | 93.5 | 76.7 | 87.2 | 101 | 85 |
| O=c1[nH]nc(Sc2ncc([N+](=O)[O-])s2)n1-c1ccc2c(c1)OCCO2 + CS(=O)(=O)CCNCc1ccc(-c2ccc3ncnc(Nc4ccc(OCc5cccc(F)c5)c(Cl)c4)c3c2)o1 [lapatinib] (first compound 0.2 µM, partner dose 0.8 µM) | 113 | 120 | 101 | 100 | 102 | 97.3 |
| O=C(Nc1cccc(Cl)c1)Nc1ncc(CCNc2ncnc3ccsc23)s1 + O=C(Nc1ccccc1)c1cc([N+](=O)[O-])ccc1Cl [GW9662] (first compound 0.0008 µM, partner dose 2 µM) | 69.5 | 113 | 80.2 | 121 | 86 | 103 |
| O=c1[nH]nc(Sc2ncc([N+](=O)[O-])s2)n1-c1ccc2c(c1)OCCO2 + CC(=O)O[C@@]12CO[C@@H]1C[C@H](O)[C@@]1(C)C(=O)[C@H](O)C3=C(C)[C@@H](OC(=O)[C@H](O)[C@@H](NC(=O)OC(C)(C)C)c4ccccc4)C[C@@](O)([C@@H](OC(=O)c4ccccc4)[C@H]21)C3(C)C [Docetaxel] (first compound 0.2 µM, partner dose 0.0001 µM) | 64.5 | 54.7 | 58.7 | 43.5 | 74.1 | 66.4 |
| O=c1[nH]nc(Sc2ncc([N+](=O)[O-])s2)n1-c1ccc2c(c1)OCCO2 + Cn1nnc2c(C(N)=O)ncn2c1=O [temozolomide] (first compound 0.2 µM, partner dose 2 µM) | 92.3 | 81.1 | 92.5 | 84 | 88.2 | 99.4 |
| O=c1[nH]nc(Sc2ncc([N+](=O)[O-])s2)n1-c1ccc2c(c1)OCCO2 + CN1CCN(c2ccc3nc(-c4c(N)c5c(F)cccc5[nH]c4=O)[nH]c3c2)CC1 [Dovitinib] (first compound 0.2 µM, partner dose 0.1 µM) | 96.9 | 88.5 | 96.1 | 92.1 | 118 | 121 |
| O=c1[nH]nc(Sc2ncc([N+](=O)[O-])s2)n1-c1ccc2c(c1)OCCO2 + CC(=O)c1c(C)c2cnc(Nc3ccc(N4CCNCC4)cn3)nc2n(C2CCCC2)c1=O [palbociclib] (first compound 0.2 µM, partner dose 0.04 µM) | 76.5 | 73.4 | 83.5 | 62.9 | 87.5 | 82.2 |
| COc1cc(Nc2ncc(F)c(Nc3ccc4c(n3)NC(=O)C(C)(C)O4)n2)cc(OC)c1OC [Tamatinib] + COc1cc2c(Oc3ccc4[nH]c(C)cc4c3F)ncnc2cc1OCCCN1CCCC1 [cediranib] (first compound 0.4 µM, partner dose 0.4 µM) | 91.4 | 91.4 | 80 | 93.5 | 93.2 | 87.2 |
| CC1(C)NC(=O)N(c2ccc([N+](=O)[O-])c(C(F)(F)F)c2)C1=O [nilutamide] + COc1cc(N2CCC(N3CCN(C)CC3)CC2)ccc1Nc1ncc(Cl)c(Nc2ccccc2S(=O)(=O)C(C)C)n1 [NVP-TAE684] (first compound 1 µM, partner dose 0.08 µM) | 94.8 | 113 | 87.5 | 65.5 | 102 | 92.5 |
